Experimental data published in the supplement of paper PMC4967469.
IC50 is the fitted dose that halves viability relative to control wells, and lower means more sensitive; a fit beyond the top or the lowest dose is shown as a bound at that dose. AUC is the area under the same curve over the 256-fold range up to the top dose, as a fraction: 1 means no effect, lower means more sensitive. For some of these results: A top dose marked as inferred is not printed in the source and was worked back from the curve model. For some of these results: An entry number marks a drug with two screens in the source, which often give different values.

How the values were obtained:
Test in all cases: Viability of human cancer cell lines after 72 h of drug (GDSC screen)
[1] = compound: Cc1ccc(C(=O)N(CCCN)[C@@H](c2nc3cc(Cl)ccc3c(=O)n2Cc2ccccc2)C(C)C)cc1 [SB-715992]; conditions: top dose 0.128 µM; top dose inferred
Method: (§1)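 Human cancer cell lines in 384-well plates, medium with 10% serum, drug for 72 h over a 256-fold dose range (nine 2-fold or five 4-fold steps up to the top dose). Adherent lines were fixed and stained with the nucleic acid dye Syto60, suspension lines read with resazurin; signal relative to control wells, capped at 0 and 100%. One two-parameter sigmoid per drug and line, fitted in a mixed model over all curves with the slope shared within a line.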

[2] = compound: C[C@]1(O)C[C@@H](c2nc(-c3ccc4ccc(-c5ccccc5)nc4c3)c3c(N)nccn32)C1 [OSI-906]; conditions: top dose 2.56 µM; top dose inferred
Method: as §1

[3] = compound: c1ccc2c(CCNc3ccc(Nc4ccncc4)cc3)c[nH]c2c1 [JNJ-26854165]; conditions: top dose 10 µM
Method: as §1

[4] = compound: O=C(/C=C/c1cccc(S(=O)(=O)Nc2ccccc2)c1)NO [Belinostat]; conditions: top dose 20 µM; top dose inferred
Method: as §1

[5] = compound: CN1CCN(c2ccc([N+](=O)[O-])c3no[n+]([O-])c23)CC1 [NSC-207895]; conditions: top dose 20 µM; top dose inferred
Method: as §1

[6] = compound: COCC[n+]1c2c(n(Cc3cnccn3)c1C)C(=O)c1ccccc1C2=O [YM155]; conditions: top dose 5.12 µM
Method: as §1

[7] = compound: COC(=O)[C@H](CCSC)NC(=O)c1ccc(NC[C@@H](N)CS)cc1-c1ccccc1 [FTI-277]; conditions: top dose 1.024 µM; top dose inferred
Method: as §1

[8] = compound: Cc1sc2c(c1C)C(c1ccc(Cl)cc1)=N[C@@H](CC(=O)OC(C)(C)C)c1nnc(C)n1-2 [JQ1]
Method: as §1

[9] = top dose 1 µM, screen: GDSC drug entry 1218, top dose inferred
[10] = top dose 2.56 µM, screen: GDSC drug entry 163

Cell Line	AUC [1]	IC50 [1]	AUC [2]	IC50 [2]	AUC [3]	IC50 [3]	AUC [4]	IC50 [4]	AUC [5]	IC50 [5]	AUC [6]	IC50 [6]	AUC [7]	IC50 [7]	AUC [8, 9]	IC50 [8, 9]	AUC [8, 10]	IC50 [8, 10]
HPAC (pancreas, adherent)	0.873	> 128 nM	0.779	1510 nM	0.962	> 10000 nM	0.539	1660 nM	0.96	> 20000 nM	0.076	< 20 nM	0.979	> 1020 nM	0.969	> 1000 nM	0.82	2340 nM
HPAF-II (pancreas, adherent)	0.881	> 128 nM	0.854	> 2560 nM	0.825	8680 nM	0.727	6850 nM	0.899	> 20000 nM	0.079	< 20 nM	0.958	> 1020 nM	0.965	> 1000 nM	0.667	541 nM
HSC-3 (head and neck, adherent)	0.961	> 128 nM	0.972	> 2560 nM	0.806	4230 nM	0.625	2610 nM	0.99	> 20000 nM	0.059	< 20 nM	0.97	> 1020 nM	0.959	> 1000 nM	0.528	188 nM
HTC-C3 (thyroid, adherent)	0.881	> 128 nM	0.964	> 2560 nM	0.932	> 10000 nM	0.238	196 nM	0.926	> 20000 nM	0.102	< 20 nM	0.951	> 1020 nM	0.976	> 1000 nM	0.623	364 nM
Hs940-T (melanoma, adherent)	0.97	> 128 nM	0.825	2000 nM	0.736	3460 nM	0.596	2430 nM	0.94	> 20000 nM	0.421	186 nM	0.976	> 1020 nM	0.981	> 1000 nM	0.649	453 nM
IM-95 (stomach, adherent)	0.839	96.3 nM	0.906	> 2560 nM	0.877	> 10000 nM	0.486	1140 nM	0.982	> 20000 nM	0.255	60 nM	0.981	> 1020 nM	0.984	> 1000 nM	0.557	231 nM
J82 (bladder, adherent)	0.977	> 128 nM	0.951	> 2560 nM	0.916	> 10000 nM	0.707	4770 nM	0.976	> 20000 nM	0.617	672 nM	0.948	> 1020 nM	0.948	> 1000 nM	0.671	476 nM
KOSC-2 (head and neck, adherent)			0.979	> 2560 nM	0.649	1650 nM	0.424	765 nM	0.985	> 20000 nM	0.108	< 20 nM	0.971	> 1020 nM	0.978	> 1000 nM	0.546	215 nM
KP-4 (pancreas, adherent)	0.442	5.59 nM	0.986	> 2560 nM	0.878	9410 nM	0.445	893 nM	0.988	> 20000 nM	0.024	< 20 nM	0.98	> 1020 nM	0.986	> 1000 nM	0.852	1850 nM
KYSE-70 (oesophagus, adherent)	0.919	> 128 nM	0.975	> 2560 nM	0.955	> 10000 nM	0.558	1820 nM	0.986	> 20000 nM	0.544	427 nM	0.959	> 1020 nM	0.98	> 1000 nM	0.825	1730 nM
KYSE-180 (oesophagus, adherent)	0.662	22.1 nM	0.895	> 2560 nM	0.84	6420 nM	0.33	429 nM	0.867	16700 nM	0.03	< 20 nM	0.986	> 1020 nM	0.982	> 1000 nM	0.697	556 nM
KYSE-270 (oesophagus, adherent)	0.903	126 nM	0.952	> 2560 nM	0.784	3590 nM	0.529	1480 nM	0.894	17800 nM	0.075	< 20 nM	0.975	> 1020 nM	0.973	> 1000 nM	0.443	115 nM
MKN45 (stomach, adherent)	0.89	> 128 nM	0.971	> 2560 nM	0.874	> 10000 nM	0.867	> 20000 nM	0.976	> 20000 nM	0.269	58.2 nM	0.983	> 1020 nM				
NCI-H2228 (lung adenocarcinoma, adherent)	0.932	> 128 nM	0.844	> 2560 nM			0.723	7570 nM	0.971	> 20000 nM	0.29	59.7 nM	0.945	> 1020 nM	0.97	> 1000 nM	0.832	> 2560 nM
SNU-398 (liver, adherent)	0.611	16.4 nM	0.902	> 2560 nM			0.41	700 nM	0.584	2140 nM	0.028	< 20 nM	0.763	382 nM	0.906	> 1000 nM	0.514	175 nM
SNU-475 (liver, adherent)	0.967	> 128 nM	0.991	> 2560 nM			0.356	527 nM	0.896	19500 nM	0.198	46.9 nM	0.991	> 1020 nM			0.988	> 2560 nM
